Among all 150,000 compounds or so, about 540 (0.36%) showed an effect of 50% or more. The list shows a part of the results.
System: Plasmodium falciparum
Assay: Primary screen in NF54 nanoGlo assay, in single point, at 2uM, 72h; a lower Z score goes with more inhibition
Format: functional, Erythrocyte
Conditions: timepoint 72 hour

Which “% Inhibition” value does the source give for `CO[C@](C)(C(=O)N1CCC(Oc2cc(C)ccn2)CC1)C1CC1` here?
Its value is -5%.

What about the Z score of the same compound?
Its Z score is 0.71.

What does the source list for `CCCn1cnc2c1c(=O)n(C[C@H]1CCCO1)c(=O)n2-c1ccccc1`?
% Inhibition: 2%; Z score: -0.36

Which results are given for `C[C@H](NCC1(c2c(F)cccc2F)CC1)c1cnn(C)c1`?
% Inhibition: -3%; Z score: 0.45

Which “% Inhibition” value does the source give for `Cc1noc(NC(=O)N2CC(C)(C)[C@H]2c2ccncc2)n1` here?
Its value is -7%.

What about the Z score of the same compound?
Its Z score is 0.56.

What does the source list for `Cc1cc(Br)ccc1NC(=O)CN1CCC(=O)NC1=O`?
% Inhibition: -11%; Z score: 0.97

With `CC1CN(C(=O)Nc2ccc(Cl)c(Cl)c2)C(C)CC1=O` (centres undefined) as the compound, how does the “% Inhibition” value read?
Its value is -9%.

What about the Z score of the same compound?
The Z score was 1.02.

Which results are given for `Cc1ccc(F)c(N2CCC[C@H](NC(=O)CCn3cncn3)C2=O)c1`?
% Inhibition: -11%; Z score: 0.99

Which results are given for `NC(=O)N1CCCc2ccc(NCc3cnn(CC(F)F)c3)cc21`?
% Inhibition: -4%; Z score: 0.75

For `CC[C@@H](C(=O)Nc1nonc1C)c1ccc(F)cc1`, which “% Inhibition” value is on record?
The value was -1%.

What about the Z score of the same compound?
The Z score was 0.15.

What does the source list for `Cc1csc(=O)n1CCN[C@H]1CCCCC1(C)C`?
% Inhibition: 7%; Z score: -0.68

How did the “% Inhibition” value turn out when `Cc1cc(C)c(S(=O)(=O)N2CCC[C@H]2C(=O)NC2CCCC2)c(C)c1` was run?
Its value is 2%.

What about the Z score of the same compound?
The Z score was -0.23.

What does the source list for `Cc1cc(OC2CN(C(=O)c3snnc3C)C2)n2ncnc2n1`?
% Inhibition: 18%; Z score: -2.4

With `Cc1noc(C)c1-c1ccc(S(=O)(=O)NCCc2ncnn2C)s1` as the compound, how does the “% Inhibition” value read?
Its value is -8%.

What about the Z score of the same compound?
Its Z score is 1.46.

How did the “% Inhibition” value turn out when `COc1cccc(-n2ccnc2-c2ccccn2)n1` was run?
Its value is -3%.

And the Z score?
Its Z score is 0.34.

Which results are given for `O=C1CC[C@H](C(=O)N2CCN(c3ccccc3Cl)CC2)CN1CCN1CCOCC1`?
% Inhibition: -6%; Z score: 0.8

How did the “% Inhibition” value turn out when `O=C1N[C@@](CCCc2ccccc2)(C2CCNCC2)C(=O)N1CCc1ccccn1` was run?
Its value is -8%.

And the Z score?
The Z score was 1.48.

What does the source list for `NC(=O)CN(Cc1cccc2cccnc12)C1CCCC1`?
% Inhibition: -31%; Z score: 4

Which “% Inhibition” value does the source give for `CNC(=O)C[C@H]1CCN(C(=O)C(C)(C)Nc2ccccc2)C1` here?
The value was -13%.

What about the Z score of the same compound?
Its Z score is 1.67.

Which “% Inhibition” value does the source give for `O=C(c1conc1C(F)(F)F)N1CCC(c2nccs2)CC1` here?
The value was 2%.

What about the Z score of the same compound?
The Z score was -0.23.

What does the source list for `Cn1nc(CN(C(=O)NCc2ccc(F)cc2)C2CCCC2)cc1C1CC1`?
% Inhibition: 11%; Z score: -1.49

`COCCC(=O)N1CC[C@@]2(C1)NCc1ccccc1N=C2NC(C)(C)C` was tested. Which “% Inhibition” value did it give?
The value was -3%.

What about the Z score of the same compound?
The Z score was 0.49.

How did the “% Inhibition” value turn out when `Cn1cccc1C(=O)C(=O)N1C[C@@H]2CC[C@H]1CN(Cc1ccccn1)C2` was run?
The value was 11%.

What about the Z score of the same compound?
The Z score was -1.03.

For `Cc1ccc(C2=C[C@@H](c3ccc(C)cc3)n3nnnc3N2CC(=O)NCc2ccccc2)cc1`, which “% Inhibition” value is on record?
Its value is -4%.

And the Z score?
The Z score was 0.42.

What does the source list for `Cc1cc(CNC2CCC(F)C2)n(C)n1` (centres undefined)?
% Inhibition: -6%; Z score: 0.73

Which “% Inhibition” value does the source give for `O=C(NC[C@@H](CO)Cc1ccc(F)cc1)c1ccc2c(c1)CCOC2` here?
Its value is -24%.

What about the Z score of the same compound?
The Z score was 2.53.

How did the “% Inhibition” value turn out when `Cc1cnn(C2CCCC2)c1NC(=O)N1CC[C@H]2CC[C@@H](C1)N2C` was run?
Its value is -14%.

What about the Z score of the same compound?
The Z score was 1.79.

What does the source list for `CCN(CC)CCOc1cc(C)ccc1C`?
% Inhibition: -5%; Z score: 0.85

What does the source list for `CC(=O)c1ccc(NCCc2cn3c(n2)CCCC3)nc1`?
% Inhibition: 0%; Z score: 0.01

What does the source list for `CC[C@H](NC(=O)CN1CCOCC1)c1cc(C)ccn1`?
% Inhibition: -6%; Z score: 0.82

For `CC1CCC(NC(=O)CCNS(C)(=O)=O)CC1` (centres undefined), which “% Inhibition” value is on record?
The value was -7%.

And the Z score?
Its Z score is 1.4.

`Cn1nccc1C1CC(NC(=O)N2CCc3cccc(Cl)c3C2)CCO1` (centres undefined) was tested. Which “% Inhibition” value did it give?
Its value is -1%.

And the Z score?
The Z score was 0.12.

With `COC[C@@H]1CCC[C@@H]1n1ccnc1-c1ccccc1C(F)(F)F` as the compound, how does the “% Inhibition” value read?
Its value is -2%.

What about the Z score of the same compound?
The Z score was 0.4.

For `COc1ccc(S(=O)(=O)Nc2ccc3c(c2)sc(=O)n3Cc2ccccc2)cc1OC`, which “% Inhibition” value is on record?
The value was 4%.

What about the Z score of the same compound?
Its Z score is -0.51.

With `Cc1ccccc1N1C[C@H](C)N(C(=O)c2c[nH]nc2-n2cnnn2)CC1=O` as the compound, how does the “% Inhibition” value read?
The value was -13%.

And the Z score?
The Z score was 2.18.

For `COc1cccc(NC(=O)Nc2cc(C)c3nc(NS(=O)(=O)c4ccc(C)cc4)sc3c2)c1`, which “% Inhibition” value is on record?
The value was 32%.

What about the Z score of the same compound?
The Z score was -3.62.

For `CN(C)C[C@H]1CN(Cc2noc(C3CC3)n2)CCO1`, which “% Inhibition” value is on record?
The value was 3%.

And the Z score?
Its Z score is -0.6.

Which “% Inhibition” value does the source give for `CCC(=O)N1CCc2ccc(OCc3nc(C(=O)N(C)Cc4ccco4)cs3)cc2[C@@H]1c1ccc(F)cc1` here?
The value was -7%.

What about the Z score of the same compound?
The Z score was 0.64.

Which “% Inhibition” value does the source give for `Cc1c[nH]c(CN(C)C(=O)N[C@@H](C)CCC(C)C)n1` here?
The value was -8%.

And the Z score?
Its Z score is 1.3.

For `CCNC(=O)N(C)C[C@H]1COCCO1`, which “% Inhibition” value is on record?
Its value is 1%.

And the Z score?
Its Z score is -0.16.

With `CN1CCN(CCNC(=O)c2ccc(NC(=O)c3nnc(COc4ccc(F)cc4)s3)cc2)CC1` as the compound, how does the “% Inhibition” value read?
Its value is -5%.

And the Z score?
Its Z score is 0.56.

Which results are given for `Cc1nn(CC(F)F)cc1C(=O)N1CCCc2ccnc(N(C)C)c21`?
% Inhibition: -8%; Z score: 0.95

How did the “% Inhibition” value turn out when `O=C(NCc1ccccc1)[C@H]1CCN(CC2CC(F)(F)C2)C1` was run?
Its value is -21%.

And the Z score?
The Z score was 2.24.
